The record followed here is the supplement of paper PMC11417369.

± gives the standard deviation of the averaged measurements. This is one part of the list.

In the test the test system is PfAP2-LT AP2 domain (GST-tagged). As to the kind of experiment: gcPBM binding intensity (ln(normalized median fluorescence intensity)); higher = stronger DNA binding. A digest of the protocol: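 Plasmodium falciparum DNA-binding domains carrying a GST tag were expressed in E. coli and applied for 1 h, at about 25 μg on average, to an Agilent 4 × 180k array. The array held primer-extended double-stranded 36-bp intergenic genomic probes together with negative controls, and binding took place in 1× PBS with 1% milk, 0.2 mg/ml BSA, 0.5% salmon testes DNA and 0.03% Triton X-100. An Alexa488 anti-GST antibody detected bound protein, and the array was scanned at 488 nm. Binding intensity is taken as the highest Masliner-normalised natural-log median intensity across replicate spots of either probe orientation.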
With “AAAACGATTTTTTGCACACACATAATAAGCAGAACA [CACACA_site3871]”, the “gcPBM binding intensity (ln)” value amounted to 9.37 ± 0.36.
The figure for “TACATAATAATAAGGCGTACATAAAAATTAAAAATT [XGTACX_site8769]” is 8.91 ± 0.45; for “ATAAAACAAAGACACACACACATACACAAAAAAAAA [CACACA_site7752]” it is 9.99 ± 0.42; for “TATCTACTTAAATAAAATAAAAATAATAAATAAAAA [TGCATGCA_negctrl_site312]” it is 8.32 ± 0.56.
In the case of “AATAATCATGATCATAGTACGTATGAATACAAAAAA [XGTACX_site265]”, the “gcPBM binding intensity (ln)” value is 9.01 ± 0.41.
The figure for “ATGTATAATATTTTCACACACAAGAAAAAAGAAAAG [CACACA_site3591]” is 9.27 ± 0.36; for “CGTATGTATATATATATACACACTTCTGTGATACGA [CACACA_site1949]” it is 9.03 ± 0.27.
Turning to “TTTTATTTATTCCTACTTTTTTATTTATTTATTTAA [XGTACX_negctrl_site415]”, the “gcPBM binding intensity (ln)” value was 8.65 ± 0.51.
As for “ACATTATGTCATAAATGTACACATACATATACATAC [XGTACX_site8998]”, the figure is 8.93 ± 0.3; as for TATTTCACTTTTTGTCTGCACTAAAATTTTATGGTA, 8.81 ± 0.51; as for “GGTATATAAAAATATTGTACTTAAAAAAATATGTAT [XGTACX_site6253]”, 8.57 ± 0.41.
As for “TAGATACATAAACACACACACACATACATATATACA [CACACA_site9139]”, the figure is 10.2 ± 0.23; as for “TTTTGACTAATATAATATGTTAAGAATTAATAAATA [XGTACX_negctrl_site35]”, 8.05 ± 0.58.
The figure for “AAAAAAAAAAAAAACACACACATATATATAATATAT [CACACA_site3172]” is 9.37 ± 0.41; for “AAGTATAGTCTTACATATATATATATATATATATAT [GTGCAC_negctrl_site280]” it is 9.79 ± 0.26.
For “CAAAAAGATAAGGTGTGTACGTATTATAATTTTAAA [XGTACX_site531]”, the “gcPBM binding intensity (ln)” value worked out at 8.97 ± 0.58.
For “ATTTAATTTTCCAAATGTACTTATATTTTTATGAAA [XGTACX_site6144]”, the “gcPBM binding intensity (ln)” value was determined as 8.27 ± 0.4.
The figure for TGAAATGATCTTTAGTTGCACTTAAAAATATATATA is 8.39 ± 0.35; for “CAGTTTAATTTACATAGTACATAATATTTTAATTTT [XGTACX_site1793]” it is 8.54 ± 0.56; for “GTAATATTAATATAATGTACAAAATGAAACATATAT [XGTACX_site6219]” it is 8.97 ± 0.43.
For “ACAATATTATTATTTAACCATACACAATTATATGTC [XGTACX_negctrl_site378]”, the “gcPBM binding intensity (ln)” value worked out at 8.82 ± 0.34.
As for “AGTATACTCAAACACACACACACAAAAAAAAAAAAA [CACACA_site4398]”, the figure is 9.88 ± 0.58; as for “TAAGAAATAAATAGTACACACATAGACACCCACCGA [CACACA_site1516]”, 9.71 ± 0.18.
As for “TTTCGAAAAACAACAAGAAAAAAAAAAAAAAAAAAA [XGTACX_negctrl_site449]”, the “gcPBM binding intensity (ln)” value was 8.11 ± 0.64.
On to “TTAAATATATGTAATACGCACACTTAATATTTTGAG [CACACA_site4170]”, for which the “gcPBM binding intensity (ln)” value came out at 8.81 ± 0.45.
